Where a name gives a salt, the structure may show the parent alone. This is one part of the list.
Each molecule was assayed on Schistosoma mansoni schistosomula (assay: phenotypic hit in primary schistosomula screen (any phenotype vs DMSO control) (binary (1 = hit, 0 = no phenotype)); higher = active (phenotype induced)). Settings: 1 µM; time (d): 7.

Phenotypic hit, active:
CN(C)CCCN1c2ccccc2CCc2ccccc21 [Imipramine hydrochloride] 1
CCS(=O)(=O)CCn1c([N+](=O)[O-])cnc1C [tinidazole] 1
COc1ccc2cc1Oc1ccc(cc1)C[C@H]1c3cc(c(OC)cc3CCN1C)Oc1c(OC)c(OC)cc3c1[C@H](C2)N(C)CC3 [tetrandrine] 1
COc1ccc(C(=O)/C=C/c2ccccc2)cc1 [4'-methoxychalcone] 1
CNCCC(Oc1ccc(C(F)(F)F)cc1)c1ccccc1 (stereo unspecified) [Fluoxetine hydrochloride] 1
O[C@H]1[C@H]2c3cc4c(cc3CN3CCC(=C[C@@H]1O)[C@H]23)OCO4 [lycorine] 1
CCCCCCCCCCCCC[N+](C)(C)Cc1ccccc1 [benzalkonium chloride] 1

Phenotypic hit, inactive:
CCN(CC)Cc1cc(Nc2ccnc3cc(Cl)ccc23)ccc1O [amodiaquine dihydrochloride] 0
CC(=O)Oc1ccc(O)cc1 [4-acetoxyphenol] 0
CC(=O)OCC[N+](C)(C)C [acetylcholine] 0
O=C(O)c1nc2cc(Cl)c(Cl)cc2nc1O [6,7-dichloro-3-hydroxy-2-quinoxalinecarboxylic acid] 0
CC(=O)O[C@H]1C[C@@H](OC(C)=O)C(C)(C)C2CC(=O)[C@]3(C)C(CC[C@@]4(C)[C@H](c5ccoc5)OC(=O)[C@H]5O[C@]543)[C@]21C (stereo partly specified) [7-deacetoxy-7-oxokhivorin] 0
CC(=O)O[C@@H]1CC2C(C)(C)C(=O)CC[C@]2(C)C2CC[C@]3(C)C(=CC(=O)O[C@H]3c3ccoc3)[C@@]21C (stereo partly specified) [dihydrodeoxygedunin] 0
OCCN1C[C@H](O)[C@@H](O)[C@H](O)[C@H]1CO [miglitol] 0
CC(C)C(=O)Nc1ccc([N+](=O)[O-])c(C(F)(F)F)c1 [flutamide] 0
Cn1cnc([N+](=O)[O-])c1Sc1ncnc2[nH]cnc12 [Azathioprine] 0
COc1cc(C)c2c(=O)c3c(O)cc(O)cc3oc2c1 [methylnorlichexanthone] 0
Cc1coc2ccccc2c1=O [methylchromone] 0
O=C(O)CCCC[C@@H]1SC[C@@H]2NC(=O)N[C@@H]21 [biotin] 0
CC1COc2c(N3CCN(C)CC3)c(F)cc3c(=O)c(C(=O)O)cn1c23 (stereo unspecified) [ofloxacin] 0
C[C@H](CCC(=O)O)[C@H]1CC[C@H]2[C@@H]3CC[C@@H]4C[C@H](O)CC[C@]4(C)[C@H]3CC[C@]12C [lithocholic acid] 0
COC(=O)C1=C(C)NC(C)=C(C(=O)OC(C)C)C1c1cccc2nonc12 (stereo unspecified) [isradipine] 0
C[N+](C)(C)CCO.[Cl-] [choline chloride] 0
CN1CCC(OC(c2ccccc2)c2ccccc2)CC1 [diphenylpyraline hydrochloride] 0
COc1cccc(-c2cc(=O)c3ccc(OC)cc3o2)c1 [7,3'-dimethoxyflavone] 0
COc1ccc(/C=C/C(=O)O)cc1O [isoferulic acid] 0
Cc1cc(O)c2c(c1)C(=O)c1cc(O)cc(O)c1C2=O [emodin] 0
Fc1ccc([C@@H]2CCNC[C@H]2COc2ccc3c(c2)OCO3)cc1 [paroxetine hydrochloride] 0
C[C@H]1COc2c(N3CCN(C)CC3)c(F)cc3c(=O)c(C(=O)O)cn1c23 [levofloxacin] 0
C=C1CCC2C(CC2(C)C)C(=O)CCC1O (stereo unspecified) [isokobusone] 0
NC(CO)C(=O)NNCc1ccc(O)c(O)c1O (stereo unspecified) [Benserazide hydrochloride] 0
COc1ccc2c(c1)OC[C@@H](Cc1ccc(OC)c(OC)c1)[C@H]2O [tetrahydrosappanone a trimethyl ether] 0
NCC[C@H](O)C(=O)N[C@@H]1C[C@H](N)[C@@H](O[C@H]2O[C@H](CN)[C@@H](O)[C@H](O)[C@H]2O)[C@H](O)[C@H]1O[C@H]1O[C@H](CO)[C@@H](O)[C@H](N)[C@H]1O [amikacin sulfate] 0
CC(=O)O[C@@](C)(CCC=C(C)C)C1CC=C(C)CC1 (stereo partly specified) [bisabolol acetate] 0
CC(C)=CCOc1cc2oc(=O)ccc2cc1O [prenyletin] 0
COc1ccc(C(=O)CC(=O)O)c2c1C=CC(C)(C)O2 [ursinic acid] 0
COC(=O)C[C@H]1C(C)(C)C(=O)[C@@H]2CC3=C4CC(=O)O[C@@H](c5ccoc5)[C@]4(C)CC[C@@H]3[C@@]1(C)C2=O [mexicanolide] 0
CC(C)=CCC[C@](C)(O)C1CC=C(C)CC1 (stereo partly specified) [bisabolol] 0
CCOC(=O)C(=O)C1(C(=O)OCC)Oc2cc(OC)cc(OC)c2C(=O)C1c1ccccc1 (stereo unspecified) 0
CCCCCCc1ccc(O)cc1O [hexylresorcinol] 0
CC1(C)NC(=O)N(c2ccc([N+](=O)[O-])c(C(F)(F)F)c2)C1=O [nilutamide] 0
COC(=O)[C@@H]1[C@H]2C[C@H]3c4[nH]c5ccccc5c4CCN3C[C@@H]2CC[C@@H]1O [Yohimbine hydrochloride] 0
C=C(C)[C@@H]1CC=C(C(=O)O)CC1 [perillic acid (-)] 0
CCCCOc1cc(C(=O)NCCN(CC)CC)c2ccccc2n1 [dibucaine hydrochloride] 0
COc1cc(OC)c2c(c1)OC(c1ccccc1)CC2=O (stereo unspecified) [alpinetin methyl ether] 0
Sc1nc2ccccc2s1 [2-mercaptobenzothiazole] 0
C=C1C2CCC3(C)C(c4ccoc4)OC(=O)CC13OC1CC(OC(C)=O)C(C)(C)C(CC(=O)OC)C12C (stereo not drawn) [3beta-acetoxydeoxyangolensic acid, methyl ester] 0
CC1CCC(C(C)C)C(O)C1 (single isomer, unassigned; (-)) [(-)-menthol] 0
CC(C)(OC(=O)c1ccccc1)[C@@H]1Cc2cc3ccc(=O)oc3cc2O1 [felamidin] 0
C=C1C(=O)O[C@@H]2C[C@@]3(C)CCC[C@H](C)C3=C[C@H]12 [helenine] 0
O=C(O)c1cc(-c2ccc(F)cc2F)ccc1O [diflunisal] 0
CCCCNC(=O)NS(=O)(=O)c1ccc(C)cc1 [Tolbutamide] 0
COc1ccc2c(c1)OC1(c3ccccc3OC)CC1C2=O (stereo unspecified) [2,3-methano-7,2'-dimethoxyflavanone] 0
CC(=O)[C@H]1CC[C@H]2[C@@H]3C[C@H](C)C4=CC(=O)CC[C@]4(C)[C@H]3[C@@H](O)C[C@]12C [medrysone] 0
CCn1cc(C(=O)O)c(=O)c2cnc(N3CCCC3)nc21 [piromidic acid] 0
O=S(=O)(O)CCS [mesna] 0
COC(=O)C[C@H]1C(C)(C)[C@@H](O)[C@@H]2CC3=C4CC(O)O[C@@H](c5ccoc5)[C@]4(C)CCC3[C@@]1(C)C2=O (stereo partly drawn) [3,16-dideoxymexicanolide-3beta-diol] 0
COc1ccc(-c2cc(=O)c3c(O)cc(O[C@@H]4O[C@H](CO[C@@H]5O[C@@H](C)[C@H](O)[C@@H](O)[C@H]5O)[C@@H](O)[C@H](O)[C@H]4O)cc3o2)cc1O [diosmin] 0
COC(=O)c1c(OC)cc2c(c1C)Oc1c(Cl)c(OC(C)=O)c(Cl)c(C)c1C(=O)O2 [gangleoidin acetate] 0
COc1cc(O)cc(/C=C/c2ccccc2)c1 [pinosylvin methyl ether] 0
C=C1C[C@]23C[C@@]1(O)CC[C@H]2[C@@]12C=C[C@H](O)[C@@](C)(C(=O)O1)[C@H]2[C@@H]3C(=O)O [gibberellic acid] 0
CN1[C@@H](CC(=O)c2ccccc2)CCC[C@H]1C[C@H](O)c1ccccc1 [lobeline hydrochloride] 0
c1ccc2[nH]c(-c3cscn3)nc2c1 [thiabendazole] 0
COc1cc(C)c(C(=O)Oc2cc(C)c(C(=O)O)c(O)c2C)c(O)c1C=O [baeomycesic acid] 0
NC(=O)NC(=O)Cc1ccccc1 [phenacemide] 0
CC(=O)Oc1cc2c(c(C)c1OC(C)=O)CC1OC13[C@@]2(C)CC[C@@]1(C)C2C[C@](C)(C(=O)O)CC[C@]2(C)CC[C@]31C (stereo partly specified) 0
C[C@]12CC[C@@H]3c4ccc(O)cc4CC[C@H]3[C@@H]1CCC2=O [estrone] 0
Cc1cc(=O)c2c(O)c(C)c(O)cc2o1 [eugenitol] 0
CC(=O)OCC1=C(C(=O)O)N2C(=O)[C@@H](NC(=O)CSc3ccncc3)[C@H]2SC1 [cephapirin sodium] 0
CN(C)[C@@H]1C(O)=C(C(N)=O)C(=O)[C@@]2(O)C(O)=C3C(=O)c4c(O)ccc(Cl)c4[C@@](C)(O)[C@H]3C[C@@H]12 [chlortetracycline] 0
Cc1cccc(CN2CCN(C(c3ccccc3)c3ccc(Cl)cc3)CC2)c1 (stereo unspecified) [meclizine hydrochloride] 0

From the supplement of paper PMC2702839
